Data taken from the supplement of paper PMC4967469.
IC50 is the fitted dose that halves viability relative to control wells, and lower means more sensitive; fits outside the tested doses are given as limits. For AUC the same curve is integrated over the 256-fold range of doses and scaled to a fraction; values near 1 show little effect. For part of these data: Where the top dose is marked as inferred, it is not printed in the source and was worked back from the curve model.

Assays:
Experiment in all cases: Viability of human cancer cell lines after 72 h of drug (GDSC screen)
[1] = compound: CC(=O)Nc1nc(C)c(-c2ccc(Cl)c(S(=O)(=O)NCCO)c2)s1 [PIK-93]; details: top dose 20 µM
Method: (§1)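 Human cancer cell lines in 384-well plates, medium with 10% serum, drug for 72 h over a 256-fold dose range (nine 2-fold or five 4-fold steps up to the top dose). Adherent lines were fixed and stained with the nucleic acid dye Syto60, suspension lines read with resazurin; signal relative to control wells, capped at 0 and 100%. One two-parameter sigmoid per drug and line, fitted in a mixed model over all curves with the slope shared within a line.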

[2] = compound: CC1(C)CCC(c2ccc(Cl)cc2)=C(CN2CCN(c3ccc(C(=O)NS(=O)(=O)c4ccc(N[C@H](CCN5CCOCC5)CSc5ccccc5)c(S(=O)(=O)C(F)(F)F)c4)cc3)CC2)C1 [ABT-263]; details: top dose 2 µM; top dose inferred
Method: as §1

[3] = compound: COc1cc(/C=C/C(=O)N2CCC=CC2=O)cc(OC)c1OC [piperlongumine]; details: top dose 10 µM
Method: as §1

[4] = compound: COc1cc2ncn(-c3cc(OCc4ccccc4C(F)(F)F)c(C(N)=O)s3)c2cc1OC [GW843682X]; details: top dose 0.256 µM
Method: as §1

[5] = compound: Cn1cc(/C=C2\C(=O)Nc3cccnc32)c2ccccc21 [GW 441756]; details: top dose 2 µM; top dose inferred
Method: as §1

[6] = compound: O=C(/C=C/c1ccccc1)NC(NC(=S)Nc1cccc2cccnc12)C(Cl)(Cl)Cl [Salubrinal]; details: top dose 16 µM; top dose inferred
Method: as §1

| Cell Line | AUC [1] | IC50 [1] [nM] | AUC [2] | IC50 [2] [nM] | AUC [3] | IC50 [3] [nM] | AUC [4] | IC50 [4] [nM] | AUC [5] | IC50 [5] [nM] | AUC [6] | IC50 [6] [nM] |
| --- | --- | --- | --- | --- | --- | --- | --- | --- | --- | --- | --- | --- |
| P30-OHK (lymphoblastic leukaemia, suspension) | 0.189 | 184 | 0.709 | 431 | 0.63 | 1340 | 0.944 | > 256 | 0.991 | > 2000 | 0.961 | > 16000 |
| ROS-50 (B-cell leukaemia, suspension) | 0.509 | 1330 | 0.715 | 607 | 0.978 | > 10000 | 0.92 | > 256 | 0.984 | > 2000 | 0.951 | > 16000 |
| NCI-H322M (lung adenocarcinoma, suspension) | 0.88 | > 20000 | 0.972 | > 2000 | 0.951 | > 10000 | 0.977 | > 256 | 0.986 | > 2000 | 0.976 | > 16000 |
| NB10 (neuroblastoma, adherent) | 0.888 | > 20000 | 0.986 | > 2000 | 0.764 | 3540 | 0.952 | > 256 | 0.851 | 1470 | 0.97 | > 16000 |
| KM12 (large intestine, adherent) | 0.915 | > 20000 | 0.949 | > 2000 | 0.907 | > 10000 | 0.44 | 10.8 | 0.887 | > 2000 | 0.888 | > 16000 |
| MZ2-MEL (melanoma, adherent) | 0.747 | 7340 | 0.867 | > 2000 | 0.736 | 3370 | 0.78 | 124 | 0.809 | 1260 | 0.874 | > 16000 |
| NB14 (neuroblastoma, adherent) | 0.646 | 3080 | 0.555 | 175 | 0.813 | 5010 | 0.977 | > 256 | 0.908 | > 2000 | 0.987 | > 16000 |
| CTB-1 (B-cell lymphoma, suspension) | 0.751 | 8830 | 0.978 | > 2000 | 0.754 | 4540 | 0.791 | 164 | 0.976 | > 2000 | 0.889 | > 16000 |
| CHP-126 (neuroblastoma, suspension) | 0.921 | > 20000 | 0.304 | 34.5 | 0.813 | 5590 | 0.973 | > 256 | 0.987 | > 2000 | 0.987 | > 16000 |
| EW-24 (Ewing sarcoma, semi-adherent) | 0.989 | > 20000 | 0.863 | 1400 | 0.975 | > 10000 | 0.907 | > 256 | 0.992 | > 2000 | 0.984 | > 16000 |
| HOP-62 (lung adenocarcinoma, adherent) | 0.886 | > 20000 | 0.968 | > 2000 | 0.714 | 2510 | 0.503 | 16.3 | 0.932 | > 2000 | 0.918 | > 16000 |
| LS-411N (large intestine, adherent) | 0.796 | 11700 | 0.982 | > 2000 | 0.756 | 4110 | 0.366 | 6.26 | 0.981 | > 2000 | 0.9 | > 16000 |
| Mo-T (hairy cell leukaemia, suspension) | 0.824 | 12200 | 0.568 | 193 | 0.688 | 2130 | 0.987 | > 256 | 0.963 | > 2000 | 0.984 | > 16000 |
| EW-18 (Ewing sarcoma, suspension) | 0.385 | 588 | 0.342 | 44.1 | 0.927 | > 10000 | 0.986 | > 256 | 0.986 | > 2000 | 0.854 | 14000 |
| MMAC-SF (melanoma, adherent) | 0.983 | > 20000 | 0.93 | > 2000 | 0.742 | 3200 | 0.934 | > 256 | 0.974 | > 2000 | 0.946 | > 16000 |
| NU-DUL-1 (B-cell lymphoma, suspension) | 0.182 | 182 | 0.647 | 291 | 0.847 | 5290 | 0.497 | 15.7 | 0.991 | > 2000 | 0.923 | > 16000 |
| CCRF-CEM (lymphoblastic leukaemia, suspension) | 0.136 | 119 | 0.24 | 26 | 0.687 | 1890 | 0.394 | 8.62 | 0.982 | > 2000 | 0.908 | 16000 |
| TE-8 (oesophagus, adherent) | 0.872 | > 20000 | 0.946 | > 2000 | 0.739 | 3200 | 0.356 | 6.18 | 0.984 | > 2000 | 0.941 | > 16000 |
| NCI-H2081 (small cell lung carcinoma, suspension) | 0.924 | > 20000 | 0.973 | > 2000 | 0.98 | > 10000 | 0.926 | > 256 | 0.97 | > 2000 | 0.962 | > 16000 |
| GDM-1 (acute myeloid leukaemia, suspension) | 0.354 | 504 | 0.5 | 125 | 0.842 | 6570 | 0.339 | 5.82 | 0.987 | > 2000 | 0.972 | > 16000 |
| MV-4-11 (leukaemia, suspension) | 0.626 | 2600 | 0.123 | 11.1 | 0.598 | 1100 | 0.578 | 25.1 | 0.62 | 250 | 0.775 | 5220 |

| Cell Line | AUC [1] | IC50 [1] [nM] | AUC [2] | IC50 [2] [nM] | AUC [3] | IC50 [3] [nM] | AUC [4] | IC50 [4] [nM] | AUC [5] | IC50 [5] [nM] | AUC [6] | IC50 [6] [nM] |
| --- | --- | --- | --- | --- | --- | --- | --- | --- | --- | --- | --- | --- |
| LAN-6 (neuroblastoma, adherent) | 0.936 | > 20000 | 0.824 | 1500 | 0.782 | 5010 | 0.829 | 202 | 0.969 | > 2000 | 0.94 | > 16000 |
| HT (B-cell lymphoma, suspension) | 0.413 | 736 | 0.961 | > 2000 | 0.812 | 4810 | 0.81 | 122 | 0.99 | > 2000 | 0.841 | 9820 |
| CA46 (Burkitt lymphoma, suspension) | 0.614 | 2640 | 0.985 | > 2000 | 0.738 | 3160 | 0.906 | > 256 | 0.985 | > 2000 | 0.86 | 15100 |
| NCI-H1694 (small cell lung carcinoma, suspension) | 0.868 | 18000 | 0.82 | 1140 | 0.831 | 6270 | 0.673 | 48.4 | 0.989 | > 2000 | 0.916 | > 16000 |
| SCH (stomach, adherent) | 0.985 | > 20000 | 0.981 | > 2000 | 0.843 | 7890 | 0.941 | > 256 | 0.988 | > 2000 | 0.987 | > 16000 |
| MDST8 (large intestine, adherent) | 0.7 | 4530 | 0.59 | 219 | 0.777 | 3970 | 0.91 | > 256 | 0.977 | > 2000 | 0.98 | > 16000 |
| SW962 (urogenital system, adherent) | 0.765 | 9080 | 0.963 | > 2000 | 0.609 | 1340 | 0.629 | 39.7 | 0.979 | > 2000 | 0.952 | > 16000 |
| NKM-1 (acute myeloid leukaemia, suspension) | 0.294 | 322 | 0.212 | 17.3 | 0.792 | 4680 | 0.802 | 130 | 0.939 | > 2000 | 0.802 | 8130 |
| EB-3 (Burkitt lymphoma, suspension) | 0.624 | 2910 | 0.978 | > 2000 | 0.759 | 4040 | 0.844 | 229 | 0.984 | > 2000 | 0.813 | 10500 |
| Farage (B-cell lymphoma, suspension) | 0.535 | 1530 | 0.805 | 801 | 0.992 | > 10000 | 0.597 | 28 | 0.993 | > 2000 | 0.928 | > 16000 |
| MOLM-13 (acute myeloid leukaemia, suspension) | 0.288 | 330 | 0.769 | 710 | 0.703 | 2240 | 0.473 | 13.5 | 0.834 | 1180 | 0.87 | 13300 |
| JVM-2 (lymphoid neoplasm, suspension) | 0.841 | 18800 | 0.887 | > 2000 | 0.648 | 1770 | 0.967 | > 256 | 0.982 | > 2000 | 0.979 | > 16000 |
| NCI-H1155 (large cell lung carcinoma, suspension) | 0.937 | > 20000 | 0.515 | 136 | 0.84 | 5200 | 0.699 | 51.6 | 0.987 | > 2000 | 0.962 | > 16000 |
| KINGS-1 (glioma, adherent) | 0.705 | 5950 | 0.878 | > 2000 | 0.799 | 7060 | 0.747 | 110 | 0.875 | > 2000 | 0.954 | > 16000 |
| ES7 (Ewing sarcoma, adherent) | 0.398 | 650 | 0.805 | 1040 | 0.605 | 1220 | 0.957 | > 256 | 0.944 | > 2000 | 0.912 | > 16000 |
| HL-60 (acute myeloid leukaemia, suspension) | 0.578 | 1990 | 0.398 | 67.7 | 0.864 | 7290 | 0.604 | 29.9 | 0.961 | > 2000 | 0.887 | 14700 |
| HC-1 (hairy cell leukaemia, suspension) | 0.444 | 883 | 0.981 | > 2000 | 0.756 | 3290 | 0.413 | 9.34 | 0.982 | > 2000 | 0.859 | 12500 |
| MRK-nu-1 (breast, suspension) | 0.869 | 15900 | 0.981 | > 2000 | 0.793 | 4160 | 0.48 | 14.1 | 0.982 | > 2000 | 0.825 | 8600 |
| JVM-3 (lymphoid neoplasm, suspension) | 0.814 | 11100 | 0.562 | 185 | 0.711 | 2500 | 0.956 | > 256 | 0.977 | > 2000 | 0.986 | > 16000 |
| ES-2 (ovary, adherent) | 0.925 | > 20000 | 0.966 | > 2000 | 0.881 | 8300 | 0.736 | 68.3 | 0.975 | > 2000 | 0.96 | > 16000 |
| TE-6 (oesophagus, adherent) | 0.906 | > 20000 | 0.97 | > 2000 | 0.985 | > 10000 | 0.505 | 16.6 | 0.965 | > 2000 | 0.942 | > 16000 |
